From PubChem BioAssay AID1508624 (National Center for Advancing Translational Sciences (NCATS), 2021) come the findings set out here.

The whole screen tested about 48,000 compounds, of which about 120 (0.25%) were called active. About 4% were inconclusive and are not listed. Calls come from the whole dose curve; as a rule, active = well fitted activation curve with a large enough effect; inconclusive = small, poorly fitted or top-dose-only effect, or another doubt; inactive = no such curve, though single readings can be large or run the other way. This is one part of the list.

This test can be described thus: Primary qHTS for Identification of Small Molecule Activators of Huntingtin-Antisense Promoter Activity. Note: nearly all actives have a fitted effect of over 55% in size. The conditions noted are these: HEK293 HTT-AS promoter firefly luciferase reporter, 24 h; series mostly up to 57.5 µM; activity change, positive = activation: at the top concentration. The method, boiled down:
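Quantitative HTS used concentration series of up to 57.5 uM final on HEK293 luciferase reporter cells, 24 h at 37 degrees C. Readout was Dual-Glo firefly luminescence.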
(qHTS replaces the single test concentration by a dilution series.)
In the case of `COC(=O)c1ccc(OCC2c3cc(OC)c(OC)cc3CCN2C(=O)Cc2ccc(OC)c(OC)c2)cc1` (configuration not stated), the “activity change, positive = activation” value is inactive: -19.4%. With `CC(C)c1nn2c(=O)cc(COC(=O)c3ccc4c(c3)OCO4)nc2s1` the figure was inactive: 2.45%; with `Cc1cn2c(=O)c(S(=O)(=O)NCCc3ccc(Cl)cc3)c(C)nc2s1`, inactive: -8.38%; with `CC(=O)N1CCc2c(sc3c2c(=O)n(-c2ccccc2)c(=O)n3CC(=O)c2ccc(F)cc2)C1`, inactive: -7.52%. Regarding `COc1cc(C(=O)Nc2nnc(CC(C)(C)C)s2)cc(OC)c1OC`, the “activity change, positive = activation” value is inactive: 11.2%. `CCc1ccc(NC(=O)C2CCCN2S(=O)(=O)c2cccc3nsnc23)cc1` (configuration not stated): the “activity change, positive = activation” value is inactive: -21.5%. Under `CCc1ccc2occ(CC(=O)NCc3ccccc3)c2c1` stands inactive: -26.5%; under `CCOc1ccccc1C(=O)Nc1cc2c(cc1C)n(C)c(=O)c(=O)n2C`, inactive: -7.47%. With `CCOC(=O)C1CCC(CN(Cc2ccc(OC)cc2)S(=O)(=O)c2ccc(F)c(C(=O)Nc3cc(Cl)ccc3OC)c2)CC1` (configuration not stated) the figure was inactive: -12.4%; with `COc1ccc(CNC(=O)CN(C)S(=O)(=O)c2ccc3[nH]c4c(c3c2)CCCC4)cc1`, inactive: -31.9%. Under `Cn1cc(-c2cc3n(n2)CCC(=O)N3CCCC(=O)NCc2ccccc2)c2ccccc21` stands inactive: -23.4%. On to `CC(C)c1ccc(NC(=O)c2cc(S(=O)(=O)NCCC3=CCCCC3)ccc2F)cc1`, for which the “activity change, positive = activation” value is inactive: -34.9%. With `CCN(CC)CCNC(=O)Cn1cnc2sc(C)c(S(=O)(=O)N3CCC(C)CC3)c2c1=O` the figure was inactive: 3.97%; with `COc1ccc(NC(=O)Cc2ccc(NC(=O)N3CCCCc4ccccc43)cc2)c(OC)c1`, inactive: -24%; with `Cc1cn2c(=O)cc(COC(=O)c3ccc(NC(=O)c4ccc(C(C)(C)C)cc4)cc3)nc2s1`, inactive: -21.8%. With `COc1ccc(C2=Nc3ccccc3N(CC(=O)Nc3cccc(C(C)=O)c3)C(=O)C2)cc1` the figure was inactive: 4.64%. Under `COc1ccc(CNS(=O)(=O)c2csc(C(N)=O)c2)cc1OC` stands inactive: 3.61%; under `CCOC(=O)c1ccc(NC(=O)C(CC)Sc2nncn3c2cc2oc(C)cc23)cc1` (configuration not stated), inactive: -8.72%; under `CCCCNc1nc2c(-c3cccc(Br)c3)nnn2c2ccccc12`, inactive: 15.9%. As for `COc1cccc2c1cc1c(=O)n(CC(=O)NCCCN3CCN(C)CC3)nc(C)n12`, the “activity change, positive = activation” value was inactive: -8.55%.

Take `CCC1=C(c2ccc(C)cc2)S(=O)(=O)N=C1N1CCC(C(=O)NCCc2cccc(OC)c2)CC1`: the “activity change, positive = activation” value is inactive: -31.2%. For `COc1ccc(OCCCn2c(C)nc3cc(C)c(C)cc32)cc1`, the “activity change, positive = activation” value is inactive: -13.9%. For the molecule `Cn1nnnc1SCCCNCc1cc(Cl)ccc1OCc1ccccc1`, the “activity change, positive = activation” value is inactive: -19.2%.

Regarding `O=C1Nc2c(c(=O)[nH]c(=O)n2-c2ccc(F)cc2)C1(NS(=O)(=O)c1ccc(Cl)cc1)C(F)(F)F` (configuration not stated), the “activity change, positive = activation” value was inactive: -10.1%.

Turning to `Cc1cccc(N2CCN(C(=O)c3c4c(nc5ccccc35)C(=O)N(C3CCCCC3)C4)CC2)c1C`, the “activity change, positive = activation” value is inactive: -13.5%.

Take `COc1ccc(OC)c(NC(=O)c2cc3c(=O)n4cccc(C)c4nc3n2C)c1`: the “activity change, positive = activation” value was inactive: -5.18%.

As to `Cc1ccc(CC(=O)NCc2nc(-c3cccc(C)c3)no2)cc1`, the “activity change, positive = activation” value is inactive: -11.9%. Take `Cc1ccc(N(C)C(=O)c2noc3c2CCCCC3)cc1C`: the “activity change, positive = activation” value is inactive: -11.9%. Consider `Cc1cccc(C)c1OCc1cc(=O)n2ccsc2n1`, for which the “activity change, positive = activation” value was inactive: -12.4%. Take `COc1cc(OC)c(NC(=O)C(C)n2nc(-c3ccc(C)c(C)c3)ccc2=O)cc1Cl` (configuration not stated): the “activity change, positive = activation” value is inactive: -29.8%. `COc1ccc(C(=O)Nc2ccc3c(c2)N(C)C(=O)c2ccccc2S3)cc1OC`: the “activity change, positive = activation” value was inactive: -42.1%. With `CCOC(=O)c1cnc2c(C)cc(C)cc2c1Nc1ccc(N2CCOCC2)cc1` the figure was inactive: 6.91%; with `CCCOc1ccccc1C(=O)Nc1nc2c(s1)CCCC2`, inactive: -25.9%.

`CN(Cc1ccccc1)C(=O)c1ccc2c(c1)N(Cc1ccc(Cl)cc1)C(=O)c1ccccc1S2=O` (configuration not stated): the “activity change, positive = activation” value is inactive: -34.8%. Under `Cc1oc(-c2ccc(Cl)cc2)nc1CN1CCCC(C(=O)NCc2ccc(Cl)cc2)C1` (configuration not stated) stands inactive: -6.75%; under `COc1cccc(NS(=O)(=O)c2ccc3[nH]cc(C(=O)N(C)Cc4ccco4)c(=O)c3c2)c1`, inactive: -9.08%; under `Cc1nnc(N2CCC(C(=O)NCc3cccc(Cl)c3)CC2)c2nn(-c3ccccc3)c(C)c12`, inactive: -37.1%.

With `CCc1ccccc1N1CC(c2nc3ccccc3n2CCC2CCCCC2)CC1=O` (configuration not stated), the “activity change, positive = activation” value is inactive: -74.2%. Under `Cn1c(=O)c2c(c3ccccc31)OC(=O)CC2c1ccccc1` (configuration not stated) stands inactive: -9.61%. Under `COc1ccc(NC(=O)c2ccc3c(=O)n4nc(Nc5ccccc5C)sc4nc3c2)cc1` stands inactive: -15.6%; under `O=c1c2ccccc2n2c(-c3cccc(F)c3)nnc2n1Cc1ccccc1`, inactive: -18.7%. Under `CC(C)c1ccc(NC(=O)CSC2=Nc3ccccc3C3=NC(CC(=O)NCc4ccco4)C(=O)N23)cc1` (configuration not stated) stands inactive: -15.8%; under `CCOC(=O)N1CCN(C(=O)c2cnn(-c3cccc(C)c3)c2-n2cccc2)CC1`, inactive: -15.6%; under `C1=CC2C3C=CC(C3)C2C1` (configuration not stated), inactive: -1.17% [at 116 µM, percent change from vehicle, -100% = no light]. For `O=C1CC(=O)Nc2cc(S(=O)(=O)Nc3cccc(Br)c3)ccc2N1`, the “activity change, positive = activation” value was inactive: -0.895%. With `COC(=O)c1cc2sc(Cl)cc2n1Cc1nc(-c2ccccc2F)oc1C` the figure was inactive: -1.25%; with `Cc1ccc(CCNC(=O)c2ccc(CNS(=O)(=O)c3ccc(F)cc3)cc2)cc1`, inactive: -5.44%.
